Measurements from the supplement of paper PMC7826260.
Some of the results follow. One pool of 16,384 single-stranded DNAs met each Rep nickase domain in vitro at 3 µM enzyme and 37 °C for 1 h; the strands have 90 letters, of which the middle is given. Uncut reads are compared with the no-enzyme pool on a log2 scale; uncut sequences lie near 0, cut ones below; no hit call is given. Reads are scaled to the total; where an enzyme cuts many sequences, the uncut ones exceed 0.

System: T1, Rep nickase domain of tomato golden mosaic virus
T1 sequence (Rep 1-124, printed without the tag): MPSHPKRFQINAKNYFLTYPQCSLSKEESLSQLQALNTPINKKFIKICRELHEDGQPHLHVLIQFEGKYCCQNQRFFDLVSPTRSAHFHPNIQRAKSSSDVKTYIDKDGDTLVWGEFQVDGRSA
Assay: uncleaved DNA left, log2 of reads against the no-enzyme library (log2 ratio); higher = less cleavage (more negative = more Rep cleavage of the k-mer); sequences stand for … in CTCGTCCG…ACCGGAGA
Protocol: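 A pool of 90-nt single-stranded DNAs with seven random bases just before the constant AC of the nick site (name = the seven bases) was cut by 3 µM recombinant His6-SUMO-tagged Rep nickase domain (300 nM DNA, 50 mM HEPES pH 8.0, 50 mM NaCl, 1 mM MnCl2, 1 h, 37 °C, three replicates). Uncut DNA was amplified and sequenced.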

Sequence	uncleaved DNA left (log2)
GACACTC	-0.0875
CTGGAGC	-0.117
TCTTGTT	-0.154
AGATCGC	-0.142
TGCTAAC	0.148
GTGACTG	0.0368
GAAAGTA	0.0407
AAGGCCA	0.175
ACATACG	-0.0155
GATAGGC	0.0127
CATGAAG	-0.013
GATCTCA	0.118
CCATTCG	-0.113
CAGGCGG	-0.0304
GGTGCGC	-0.00065
CTGCTCA	0.0247
TGACACT	-0.14
CCGGGCC	0.119
AAGCCCC	-0.117
CAATCTA	-0.309

Sequence	uncleaved DNA left (log2)
CCACGAG	0.036
AGTATAC	0.0649
TACTGTT	-2.02
CTCTAGA	0.098
CTGTTGT	-0.385
CGGTTAT	0.0219
TTCCTAG	-0.123
GACGAGG	0.138
TATCGTT	-0.327
GTGGCCC	0.109
CTTGGTG	-0.0243
AACCACA	0.01
CTGAGCG	-0.0626
GGCGATA	0.19
GTTCCTT	0.188
TAGTCTT	-1.7
TTCGAGA	0.221
AACCCCT	-0.23
GCCTTCT	-0.0318
TACGATC	-0.0786
